# Test results reported in PubChem BioAssay AID504901 (Southern Research Specialized Biocontainment Screening …, 2011).
# A number of entries come with more than one value. This list holds those alone. The source may hold further records. The records of an entry are repeated measurements in other runs, samples, wells, individuals or studies. What stands in brackets tells the records apart. A, B and so on number the origins entry by entry.
# Tested on: Mycobacterium tuberculosis H37Rv growth inhibition, no glycerol
# Test: Mycobacterium tuberculosis H37Rv growth inhibition, no glycerol, confirmatory dose response (AID 504901)
# Details: measured here: IC50 of growth inhibition
smiles,measurement,value
O=C(CSc1nc2ccccc2c(=O)[nH]1)NC1CCCCC1,IC50,330 nM [sample A] and 20 nM [sample B]
